In all, about 390,000 compounds went through this assay and about 150 (0.038%) were called active. This list was built around the results that the source calls inconclusive (neither active nor inactive); the mix of calls is not that of the screen. Calls come from the whole dose curve; as a rule, active = well fitted inhibition curve with a large enough effect; inconclusive = small, poorly fitted or top-dose-only effect; inactive = no such curve, though single readings can be large or run the other way. Where the call is inconclusive, the potency comes from a doubtful curve fit.
These compounds were tested against Regulator of G-protein signaling 4 (Homo sapiens) (UniProt P49798) (assay: Inhibitors of Regulator of G Protein Signaling (RGS) 4: qHTS). Settings: Transcreener GDP fluorescence polarization, RGS4-accelerated GTP hydrolysis; series mostly up to 114 µM.
In short: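 MLSMR compounds (23 nl, pin-transferred) preincubated 10 min at room temperature with a 500nM (2x) first reagent, then RGS4 at 900nM (2x) plus Transcreener GDP mix added; fluorescence polarization (620/688 nm) read before and after 90 min at 30 °C.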
Note: nearly all actives have a fitted effect of over 75% in size.
Potency is the fitted concentration of half-maximal effect; tags give direction and shape of the fitted curve.

Sequence of UniProt P49798 (P49798 whole entry, looked up): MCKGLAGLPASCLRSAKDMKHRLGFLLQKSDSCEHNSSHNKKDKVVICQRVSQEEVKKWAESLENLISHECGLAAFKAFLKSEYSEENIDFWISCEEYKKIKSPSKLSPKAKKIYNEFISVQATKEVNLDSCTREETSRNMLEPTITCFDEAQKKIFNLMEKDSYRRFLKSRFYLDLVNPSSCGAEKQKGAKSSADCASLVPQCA

Row | Structure (SMILES) | Potency
1 | Cc1c(NC(=S)/C=C2\N(C)c3ccccc3C2(C)C)c(=O)n(-c2ccccc2)n1C | inactive
2 | CCCCCCCCCCCCCCCCOCC(CO)OC(C)=O (configuration not stated) | inconclusive: 0.474 µM [inhibitor, full curve, poor fit]
3 | O=C(/C=C\c1cn(-c2ccccc2)nc1-c1ccc2c(c1)OCCO2)N1CCOCC1 | inactive
4 | COC(=O)c1cc(O)cc(OC)c1C(=O)c1c(O)cc(C)cc1O | inactive
5 | COc1ccc(-n2nnnc2SCC(=O)N2CCN(C(=O)c3ccco3)CC2)cc1OC | inconclusive: 17.8 µM [inhibitor, full curve, poor fit]
6 | COc1ccc(S(=O)(=O)N2CCOc3ccccc32)cc1 | inactive
7 | CC[C@@H](C)[C@H](NC(=O)OC(C)(C)C)c1nnc(S(=O)(=O)Cc2cc(C)ccc2C)o1 | inconclusive: 28.2 µM [inhibitor, full curve, poor fit]
8 | COc1ccc(CCC(=O)NCc2ccco2)cc1 | inactive
9 | O=C(O)c1cc(S(=O)(=O)Nc2cc(Cl)ccc2Oc2ccccc2)ccc1O | inactive
10 | Cc1ccc2cc(C3CC(c4ccco4)=NN3C(=O)CCC(=O)O)c(Cl)nc2c1 (configuration not stated) | inconclusive: 56.2 µM [inhibitor, partial curve, poor fit]
11 | CC(C)NS(=O)(=O)c1ccc(CCC(=O)N2CCCC2)cc1 | inconclusive: 50.1 µM [inhibitor, single point]
12 | CCc1ccc(C2C(C#N)=C(N)C(C#N)(C#N)C3=CCC(C(C)(C)C)CC32)cc1 (configuration not stated) | inconclusive: 22.4 µM [inhibitor, full curve, poor fit]
13 | COc1ccccc1C(C[N+](=O)[O-])c1c(N)n(C)c(=O)n(C)c1=O (configuration not stated) | inconclusive: 79.4 µM [inhibitor, partial curve, poor fit]
14 | COc1ccc2c(c1)nc(SCC(=O)c1ccc(Br)s1)n2C | inconclusive: 17.8 µM [inhibitor, full curve, poor fit]
15 | COc1ccc(C)cc1NC(=O)C(=O)NNC(=O)COc1ccc(Cl)cc1 | inactive
16 | O=C(COc1cccc2cccnc12)Nc1ccccc1 | inactive
17 | N#CC1=C(N)Oc2cc3ccccc3cc2C1c1cccs1 (configuration not stated) | inconclusive: 70.8 µM [inhibitor, single point]
18 | CC1=NN(C(N)=S)C(=O)C1N=Nc1c(Cl)cc([N+](=O)[O-])cc1Cl (configuration not stated) | inconclusive: 89.1 µM [inhibitor, partial curve, poor fit]
19 | Cc1cc(C)nc(NC(=O)/C=C/c2cccs2)c1 | inactive
20 | O=C(COC(=O)Cc1ccc(Cl)cc1)Nc1ccc(OC(F)F)cc1 | inconclusive: 79.4 µM [inhibitor, partial curve, poor fit]
21 | COc1ccc(CNC(=O)c2nc(Cn3nc(C)c(Br)c3C)no2)cc1OC | inactive
22 | O=C(Nc1ccccc1C(F)(F)F)NC1(C(=O)N2CCOCC2)CCCCC1 | inconclusive: 25.1 µM [inhibitor, full curve, poor fit]
23 | COc1ccc(C=NNC(=S)NN=Cc2ccc(OC)c(OC)c2)cc1OC | inconclusive: 50.1 µM [inhibitor, partial curve, poor fit]

Row | Structure (SMILES) | Potency
24 | O=[N+]([O-])c1ccc(C=NNC(=S)NN=Cc2ccc([N+](=O)[O-])cc2)cc1 | inconclusive: 22.4 µM [inhibitor, full curve, poor fit]
25 | NC(=O)c1ccc(N=Cc2c(O)ccc3ccccc23)cc1 | inconclusive: 50.1 µM [inhibitor, partial curve, poor fit]
26 | COc1cc(C(=O)N2C(=O)CCC2=O)cc(OC)c1OC | inconclusive: 100 µM [inhibitor, partial curve, poor fit]
27 | O=C(CCS(=O)(=O)c1ccc(Br)cc1)NCc1cccs1 | inactive
28 | CCOC(=O)c1c(C)[nH]c(C)c1C(=O)CSc1nnc(-c2ccc(OC(F)F)cc2)o1 | inconclusive: 39.8 µM [inhibitor, full curve, poor fit]
29 | CCC(=O)Nc1ccc2c(c1)nc1n2CCN(C2CCCCC2)C1 | inconclusive: 70.8 µM [inhibitor, partial curve, poor fit]
30 | CC(=O)Nc1ccn(C2OC(C(COC(C)=O)NC(=O)C(COCc3ccccc3)NC(=O)OC(C)(C)C)C(OC(C)=O)C2OC(C)=O)c(=O)n1 (configuration not stated) | inactive
31 | Oc1ccc(/C=N/N2CCN(C3c4ccccc4-c4ccccc43)CC2)c(O)c1 | inactive
32 | N#Cc1cnc(SCCc2ccccc2)nc1N | inactive
33 | Cc1cc(C(=O)OCC(=O)N2CCc3ccccc32)c(C)o1 | inactive
34 | CCCC1C2C(=O)N(c3ccccc3OC)C(=O)C2ON1c1ccccc1 (configuration not stated) | inactive
35 | Cc1ccccc1NCc1cccn1-c1nnc(N2CCC(C)CC2)s1 | inactive
36 | CCOC(=O)c1ccccc1N1C(=O)C2Sc3[nH]c(=O)sc3C(/C=C/c3ccccc3)C2C1=O (configuration not stated) | inconclusive: 100 µM [inhibitor, partial curve, poor fit]
37 | COc1ccc(CCN(C)Cc2cccc3ccccc23)cc1OC | inactive
38 | Cn1c(Cn2nnc3ccccc32)nnc1SCC(=O)c1ccccc1F | inconclusive: 17.8 µM [inhibitor, full curve, poor fit]
39 | CCC(C)(C)n1nnnc1C(C(C)C)N(CCN1CCOCC1)Cc1cc2cccc(C)c2[nH]c1=O (configuration not stated) | inactive
40 | CCOc1ccc(CCNC(=O)c2cc3c(s2)-c2ccccc2OC3)cc1OCC | inactive
41 | COCCN(C(=O)COC(=O)/C=C/c1ccc(Cl)c(Cl)c1)c1c(N)n(Cc2ccccc2)c(=O)[nH]c1=O | inconclusive: 89.1 µM [inhibitor, single point]
42 | S=C(NCCN1CCOCC1)N1CCN(c2cccc(Cl)c2)CC1 | inconclusive: 79.4 µM [inhibitor, partial curve, poor fit]
43 | COc1ccc(N2CCN(CC(=O)Nc3ncc(C)s3)CC2)cc1 | inconclusive: 79.4 µM [inhibitor, partial curve, poor fit]
44 | Cc1cn([C@H]2C[C@H](O)[C@@H](CCC(=O)NCc3ccco3)O2)c(=O)[nH]c1=O | inactive
45 | CC(=O)N1CCN(c2csc3ccc(Br)cc3c2=O)CC1 | inconclusive: 17.8 µM [inhibitor, partial curve, poor fit]
46 | CC(C)OCCCn1c(=S)[nH]c2ncccc2c1=O | inconclusive: 89.1 µM [inhibitor, single point]

Row | Structure (SMILES) | Potency
47 | COc1ccccc1C(c1c(O)nc(SC)[nH]c1=O)c1c(O)nc(SC)[nH]c1=O | inconclusive: 89.1 µM [inhibitor, partial curve, poor fit]
48 | CCCOc1ccc(C(=O)CCN2CCCCC2)cc1 | inconclusive: 56.2 µM [inhibitor, partial curve, poor fit]
49 | CCc1cccc(C)c1NC(=O)Cn1cc2c(n1)CCCCC2 | inactive
50 | COC(=O)c1ccccc1NC(=O)N1CCC(n2c(C)nc3cccnc32)CC1 | inactive
51 | Cc1ccc(C(c2c(C)[nH][nH]c2=O)c2c(C)[nH][nH]c2=O)cc1[N+](=O)[O-] | inconclusive: 79.4 µM [inhibitor, partial curve, poor fit]
52 | CSc1ccc(NC(=O)NCCCN2CCC(Cc3ccccc3)CC2)cc1 | inactive
53 | CC(=O)Nc1ccc(-c2nnc(SCC(=O)c3ccc4c(c3)Cc3ccccc3-4)n2C)cc1 | inconclusive: 17.8 µM [inhibitor, full curve, poor fit]
54 | CCCc1nc(SCc2cccnc2)c2c(=O)n(C)c(=O)n(C)c2n1 | inactive
55 | S=c1nccc(-c2ccc(Cl)cc2)[nH]1 | inconclusive: 100 µM [inhibitor, single point]
56 | COc1ccc(N(C(=O)CNC(=O)c2cccs2)C(C(=O)NCC2CCCO2)c2ccc(OC)c(OC)c2)cc1 (configuration not stated) | inconclusive: 100 µM [inhibitor, partial curve, poor fit]
57 | CCc1nn(CCCC(=O)NCc2cc(Br)ccc2OC)c(=O)c2cc3occc3n12 | inconclusive: 31.6 µM [inhibitor, full curve, poor fit]
58 | CCn1c(SCC(=O)N/N=C/C=C/c2ccccc2[N+](=O)[O-])nnc1-c1ccccc1 | inconclusive: 79.4 µM [inhibitor, partial curve, poor fit]
59 | CCc1ccccc1NC(=O)CCNS(=O)(=O)c1ccc2c(c1)CCC(=O)N2 | inactive
60 | Cc1cccc(N2CC(C(=O)Nc3nnc(SCc4cccnc4)s3)CC2=O)c1 (configuration not stated) | inconclusive: 100 µM [inhibitor, partial curve, poor fit]
61 | O=C(/C=C/c1ccc(F)cc1)NC(=S)N1CCCCC1c1cccnc1 (configuration not stated) | inconclusive: 17.8 µM [inhibitor, full curve, poor fit]
62 | CCN1C(=O)c2ccccc2S(=O)c2ccc(C(=O)N3CCN(c4ccccc4OC)CC3)cc21 (configuration not stated) | inactive
63 | CC1(C)CC(=O)C2=C(C1)OC(N)=C(C#N)C2c1ccc[nH]1 (configuration not stated) | inconclusive: 89.1 µM [inhibitor, partial curve, poor fit]
64 | CCCC[n+]1c(C)sc2cc(OC)ccc21 | inconclusive: 17.8 µM [inhibitor, full curve, poor fit]
65 | COc1ccc(N2CCN(C(=O)C(C)n3c(=O)cc(C(F)(F)F)c4c(C)nn(C)c43)CC2)cc1 (configuration not stated) | inconclusive: 100 µM [inhibitor, single point]
66 | S=c1[nH]nc(COc2ccccc2)n1/N=C/c1ccc(Br)cc1 | inconclusive: 50.1 µM [inhibitor, partial curve, poor fit]
67 | CCC(=O)c1ccc(N2CCN(C(=O)c3cccc(F)c3)CC2)c(F)c1 | inconclusive: 70.8 µM [inhibitor, single point]

Reference: PubChem BioAssay AID504845 (National Center for Advancing Translational Sciences (NCATS), 2011)
